Structures are written as SMILES. The whole screen tested about 310,000 compounds, of which about 2,200 (0.71%) showed an effect of 50% or more. The effect is printed as a negative number. The list shows a part of the results.

The source of these data is publication PMC4336329 (PLoS ONE, 2015).

human ether-à-go-go-related gene (hERG) potassium channel, sequence (Q12809 whole entry, looked up): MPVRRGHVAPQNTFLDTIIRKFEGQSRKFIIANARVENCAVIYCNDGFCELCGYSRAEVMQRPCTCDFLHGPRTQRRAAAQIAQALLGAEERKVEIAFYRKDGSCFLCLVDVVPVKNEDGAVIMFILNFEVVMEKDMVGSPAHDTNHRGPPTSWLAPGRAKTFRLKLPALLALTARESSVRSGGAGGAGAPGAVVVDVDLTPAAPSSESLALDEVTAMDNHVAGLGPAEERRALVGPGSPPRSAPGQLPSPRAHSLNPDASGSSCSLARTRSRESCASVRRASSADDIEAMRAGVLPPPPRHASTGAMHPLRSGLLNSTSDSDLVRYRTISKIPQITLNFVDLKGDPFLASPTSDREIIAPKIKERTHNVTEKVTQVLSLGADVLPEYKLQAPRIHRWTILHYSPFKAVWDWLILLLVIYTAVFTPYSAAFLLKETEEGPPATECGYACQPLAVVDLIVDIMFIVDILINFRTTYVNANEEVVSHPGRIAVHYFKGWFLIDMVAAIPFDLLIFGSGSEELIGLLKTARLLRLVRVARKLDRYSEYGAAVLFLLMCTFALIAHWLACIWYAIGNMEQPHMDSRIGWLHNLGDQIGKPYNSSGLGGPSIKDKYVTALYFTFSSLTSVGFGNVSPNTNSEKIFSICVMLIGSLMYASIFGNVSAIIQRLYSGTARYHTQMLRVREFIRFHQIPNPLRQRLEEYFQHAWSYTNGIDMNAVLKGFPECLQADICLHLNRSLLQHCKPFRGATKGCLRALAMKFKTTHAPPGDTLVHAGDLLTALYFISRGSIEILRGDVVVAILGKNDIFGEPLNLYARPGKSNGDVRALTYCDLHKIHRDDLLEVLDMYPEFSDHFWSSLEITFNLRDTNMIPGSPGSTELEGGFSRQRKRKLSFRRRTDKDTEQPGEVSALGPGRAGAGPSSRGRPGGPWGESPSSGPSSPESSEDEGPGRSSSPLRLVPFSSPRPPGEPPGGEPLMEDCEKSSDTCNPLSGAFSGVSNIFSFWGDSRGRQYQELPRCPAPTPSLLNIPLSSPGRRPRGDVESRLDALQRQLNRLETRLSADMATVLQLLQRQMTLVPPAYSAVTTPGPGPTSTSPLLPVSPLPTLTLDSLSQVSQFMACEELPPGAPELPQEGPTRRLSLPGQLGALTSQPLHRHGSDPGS

This assay has as its target human ether-à-go-go-related gene (hERG) potassium channel (human, UniProt Q12809). The experiment in a line: primary screen, population patch clamp on CHO cells stably expressing hERG.
For `O=C(O)/C=C/S(=O)(=O)c1ccc2ccccc2c1`, the “hERG current change (%, negative = inhibition) at 1uM” value is listed as 9.53%.
The result for `CCOc1ccc(N(CC(=O)Nc2ccccc2C)S(=O)(=O)c2c(C)[nH]c(=O)[nH]c2=O)cc1` reads 10.7%.
In the case of `Cl.O.Oc1ccc2c3c1O[C@H]1c4[nH]c5ccccc5c4C[C@@]4(O)C(C2)N(CC2CC2)CC[C@]314`, the “hERG current change (%, negative = inhibition) at 1uM” value is -16.4%.
With `CCN(CC)CCN1CCn2c3c(c4cc(C)ccc42)CCCC31.Cl` (stereo not drawn), the “hERG current change (%, negative = inhibition) at 1uM” value is listed as -49.8%.
The result for `Cc1nnsc1-c1onc(C)c1C(=O)O/N=C/c1ccc(Cl)cc1` reads 10.8%.
For `CCCOc1cccc(/C=N/NC(=O)c2csc(C)c2C)c1`, the “hERG current change (%, negative = inhibition) at 1uM” value amounted to 10.5%.
On to `O=C(NCc1ccon1)c1ccc(OC2CCN(CCc3ccccc3)CC2)cc1`, for which the “hERG current change (%, negative = inhibition) at 1uM” value is given as -26%.
Take `CC(C)(C)NC(=O)CSc1nc(O)cc(=O)n1-c1ccccc1`: the “hERG current change (%, negative = inhibition) at 1uM” value came out at 6.42%.
In the case of `CCc1nnc(NC(=O)CCC(=O)NC2CC2)s1`, the “hERG current change (%, negative = inhibition) at 1uM” value is listed as 7.3%.
With `COc1ccc(C(=O)Nc2ccc3c(c2)OCCO3)cc1S(=O)(=O)N1CCOCC1`, the “hERG current change (%, negative = inhibition) at 1uM” value is on record as 11%.
Under `Brc1cnc(N2CCCC2)nc1N1CCOCC1` stands -0.102%; under `COc1cccc(CNC2CCCc3ccccc32)c1OC` (stereo not drawn), 11.5%; under `O=C(NCc1ccccc1)C12CN(Cc3ccccc3)CC1C(c1cccc([N+](=O)[O-])c1)=NO2` (stereo not drawn), 9.37%.
Under `CCCN(CC(=O)Nc1ccccc1C)C(=O)C1CCN(S(=O)(=O)c2cccc(C(F)(F)F)c2)CC1` stands 11.4%; under `CCOC(=O)N/N=C/c1cn(CCCOc2ccccc2)c2ccccc12`, 20.2%; under `CCOC(=O)c1ccc(N2Cc3ccccc3C2=NC(=O)c2cccc([N+](=O)[O-])c2)cc1`, -3.28%.
Take `CCC(C)CCN1C(Nc2ccccc2)=NC[C@@H]1Cc1ccccc1` (stereo partly drawn): the “hERG current change (%, negative = inhibition) at 1uM” value is given as -17.5%.
Regarding `CCOC(=O)c1c(NC(C)=O)sc2c(OC(C)=O)cccc12`, the “hERG current change (%, negative = inhibition) at 1uM” value is on record as 17.5%.
In the case of `CCOC(=O)C1CCCN(C(=O)C(=O)c2cn(CC(=O)N3CCOCC3)c3ccccc23)C1` (stereo not drawn), the “hERG current change (%, negative = inhibition) at 1uM” value is listed as -3.27%.
With `COC(=O)c1ccc(Cn2nc(C)cc2C)cc1`, the “hERG current change (%, negative = inhibition) at 1uM” value stood at 17.4%.
The result for `O=C(CC1SC(=O)N(c2ccccc2)C1=O)Nc1ccc(Br)cc1` (stereo not drawn) reads 11.5%; that for `CC1CCC(=O)N(CCSc2ccccc2)CC1` (stereo not drawn), 9.47%.
The result for `Cc1ccc(OCC(=O)N(Cc2ccco2)C2CCS(=O)(=O)C2)cc1C` (stereo not drawn) reads -9.82%; that for `COc1ccc2c(c1)O/C(=C\c1ccccc1C)C2=O`, 11.9%.
The result for `CCOC(=O)Cc1csc(NC(=O)c2ccc([N+](=O)[O-])cc2[N+](=O)[O-])n1` reads 13.7%; that for `COc1cccc(C2=CC(=O)CC(c3ccco3)C2)c1` (stereo not drawn), 15.7%; that for `Cc1ccccc1NC(=O)Cn1cc(C(=O)C2CC2)c2ccccc21`, 12%.
Regarding `COc1ccc(S(=O)(=O)N(C)CC(=O)Nc2ccccc2SC)cc1Cl`, the “hERG current change (%, negative = inhibition) at 1uM” value is on record as 11.6%.
Under `COc1ccccc1N1CCN(C(=O)C(=O)c2c(C)n(C)c3ccccc23)CC1` stands -0.112%.
With `Cc1cccc(NC(=O)CSCC(=O)N2CCN(c3cccc(C(F)(F)F)c3)CC2)c1`, the “hERG current change (%, negative = inhibition) at 1uM” value was 2.24%.
The result for `CCN(CC(=O)Nc1ccccc1C(F)(F)F)C(=O)c1cccc(N2C(=O)CCC2=O)c1` reads 1.61%; that for `CCOc1ccccc1/C=N/n1nnnc1N`, 14.2%; that for `Cc1ccc(O)c(N=Nc2ccc(S(=O)(=O)N3CCCC3)cc2)c1`, 16.6%.
The result for `CCOC(=O)C1C(=O)NC(N2CCN(Cc3ccccc3)CC2)=NC1c1ccccc1` (stereo not drawn) reads -3.77%; that for `CCOC(=O)C(NC(=O)Nc1cccc(C)n1)(OCC(F)(F)F)C(F)(F)F` (stereo not drawn), 1.04%; that for `COc1cccc2c(=O)c3cccc(N)c3[nH]c12`, 13.3%.
Under `CC(=O)c1ccc(Sc2ccccc2N)c([N+](=O)[O-])c1` stands 12.4%.
Regarding `COc1ccc(CN2[C@@H](CC(C)=O)c3cc(C(F)(F)F)ccc3S2(=O)=O)cc1`, the “hERG current change (%, negative = inhibition) at 1uM” value came to 10.6%.
Regarding `Brc1ccc2ncnc(NCc3ccco3)c2c1`, the “hERG current change (%, negative = inhibition) at 1uM” value came out at 0.0379%.
Under `Cc1ccc(/C=C/C(=O)N2CCCC(C(N)=O)C2)o1` (stereo not drawn) stands -0.805%; under `CC(C)NC(=S)N1CCN(c2ncccn2)CC1`, 1.92%.
As to `COc1ccc2c(c1)c(C(O)CN1CCC(Cc3ccccc3)CC1)c(C)n2C` (stereo not drawn), the “hERG current change (%, negative = inhibition) at 1uM” value is on record as -37.2%.
Under `COc1ccc(NC(=O)N(Cc2cc3cc(C)ccc3[nH]c2=O)CC2CCCO2)cc1` (stereo not drawn) stands 10.5%.
As for `O=C(Cc1ccc(S(=O)(=O)N2CCOCC2)s1)NC1CCCCC1`, the “hERG current change (%, negative = inhibition) at 1uM” value is on record as -17.1%.
Take `COc1cc2cnc(-c3ccccc3)c(-c3cccc(C(F)(F)F)c3)c2cc1OC`: the “hERG current change (%, negative = inhibition) at 1uM” value was determined as 16.3%.
In the case of `Cc1cc(C)n(C(=O)c2ccc(Cn3nc(C)c(Br)c3C)o2)n1`, the “hERG current change (%, negative = inhibition) at 1uM” value was -6.69%.
Turning to `N#Cc1c(NC(=O)c2cc(C3CC3)on2)sc2c1CCC2`, the “hERG current change (%, negative = inhibition) at 1uM” value came to 12%.
As to `CCOC(=O)c1c(C)[nH]c(C(=O)OC(C)C(=O)Nc2ccccc2OC)c1C` (stereo not drawn), the “hERG current change (%, negative = inhibition) at 1uM” value amounted to 5.43%.
The result for `Cc1[nH]nc2c1C(c1ccc(Cl)cc1)C(C#N)=C(N)O2` (stereo not drawn) reads 9.67%; that for `Cn1c(NC(=O)c2cccc(Cn3cc(Cl)cn3)c2)nc2ccccc21`, 9.95%; that for `Cc1cc(C)nc(N/N=C/C2=C(O)CC(c3ccc(F)cc3)CC2=O)n1` (stereo not drawn), 12.2%.
Under `CC(=O)N1CCc2ccc(S(=O)(=O)Nc3ccccc3Cl)cc21` stands 1.81%; under `CCC1CCCCN1CCCNC(=O)CN1C(=O)c2cccnc2Oc2ccc(Cl)cc21` (stereo not drawn), 10.2%.
On to `CCCOc1ccccc1/C=N/Nc1ccnc(=O)[nH]1`, for which the “hERG current change (%, negative = inhibition) at 1uM” value came out at 6.42%.
The result for `COc1ccccc1/C=C/C(=O)NCCc1ccccn1` reads 21.6%; that for `OC1(CN2CCOCC2)C2CN3CCN(C2)CC1(c1ccccc1)C3` (stereo not drawn), -1.06%; that for `CC(CC(=O)O)CC(=O)Nc1ccc(Br)cc1` (stereo not drawn), 11.9%.
